Test results as given in PMC7822688, “W196 and the β-Hairpin Motif Modulate the Redox Switch of Conformation and the Biomolecular Interaction Network of the Apoptosis-Inducing Factor” (Oxidative Medicine and Cellular Longevity, 2021).

Legend:
[1] = target: WT human apoptosis-inducing factor hAIF_(Δ1-101) (human) (UniProt O95831); test: SEC; HiPrep 26/60 Sephacryl S-200 HR, 50 mM phosphate, 150 mM NaCl, pH 7.4, 0.5 mL/min, 6°C; with a 10-fold excess of NADH (CTC state); monomer-dimer
[2] = target: WT human apoptosis-inducing factor hAIF_(Δ1-101) (human) (UniProt O95831); test: cross-linking; 4 μM hAIF_(∆1-101) variant, 100-fold excess of BS^3, 10 mM phosphate, pH 7.4, room temperature, 12% SDS-PAGE; with an excess of NADH (CTC state)

stoichiometry N [1]: 2
stoichiometry N [2]: 2
Substance: WT human apoptosis-inducing factor hAIF_(Δ[…]) (a stretch of the chain, no sequence given) (domain or fragment; other documents disagree on this pair)
